From ChEMBL document CHEMBL4888484, “Replenishing the malaria drug discovery pipeline: Screening and hit evaluation of the MMV Hit Generation Library 1 (HGL1) against asexual blood stage Plasmodium falciparum ,using a nano luciferase reporter read-out” (2022) come the findings set out here.

Screen size: about 150,000 compounds; about 540 (0.36%) showed an effect of 50% or more. Some of the results follow.

In this test the test system is Plasmodium falciparum. In words: Primary screen in NF54 nanoGlo assay, in single point, at 2uM, 72h; a lower Z score goes with more inhibition. The test is classed as functional, Erythrocyte. As to conditions: timepoint 72 hour.
In the case of `Cc1ccc(CNC2CCN(C)CC2)s1`, the % Inhibition (as a rule, the change of the read-out against control, counted positive when it falls) was -5% and the Z score stood at 0.61.

For `COC(=O)Nc1cccc(NC(=O)N2CC(OCc3cccc4ccccc34)C2)c1`, the “% Inhibition” value worked out at 1% and the Z score is listed as -0.22.

As for `CC(C)(CCS(C)(=O)=O)Nc1ccc(C(F)(F)F)cn1`, the “% Inhibition” value is 2% and the Z score is listed as -0.33.

`C=CCN1CCC[C@H](Cn2cncn2)C1`: the “% Inhibition” value is -11% and the Z score is listed as 1.15.

On to `Nc1nn(-c2cc(C(=O)O)cc(S(=O)(=O)N3CCCCCC3)c2)c2ccccc12`, for which the “% Inhibition” value was -3% and the Z score was 0.36.

In the case of `c1nc2nc3c(c(N4CCCCCCCC4)n2n1)CCCC3`, the “% Inhibition” value is on record as 1% and the Z score was -0.13.

In the case of `COc1ccc(OC)c(NC(=O)CN2CCc3[nH]c4ccc(F)cc4c(=O)c3C2)c1`, the “% Inhibition” value is given as 45% and the Z score is recorded as -6.35.

Consider `CN(C)c1nc(CN2CCC(CO)CC2)ns1`, for which the “% Inhibition” value turned out to be 33% and the Z score is recorded as -4.18.

`CCN(C(=O)c1nc(C)ccc1Br)[C@H]1CCNC1=O`: the “% Inhibition” value is -10% and the Z score is 1.6.

Regarding `COCCn1cnc2c(-c3ccccc3)cn(CC(=O)Nc3ccc(C)c(C)c3)c2c1=O`, the “% Inhibition” value turned out to be 12% and the Z score is listed as -1.77.

In the case of `OCc1cc(CC2(NCc3ccc4c(c3)OCO4)COC2)no1`, the “% Inhibition” value was 32% and the Z score is recorded as -3.61.

In the case of `CCCCCOCC(=O)NCc1cncc(OC)c1`, the “% Inhibition” value is -7% and the Z score amounted to 0.99.

As for `O=S(=O)(Cc1c(Cl)cccc1Cl)NCc1ccco1`, the “% Inhibition” value was 3% and the Z score was -0.26.

For `CCOc1cccc2nnc(NC(=O)NCc3cccc(OC)c3)n12`, the “% Inhibition” value is -6% and the Z score is reported as 0.71.

Take `O[C@@H](CN1CCC2(CC1)OCCO2)c1ccc(F)cc1`: the “% Inhibition” value was 3% and the Z score was -0.46.

Consider `CCc1ccc(CCC(=O)N2CCC[C@@H]2Cn2ccnc2C)cc1`, for which the “% Inhibition” value is on record as -9% and the Z score is given as 1.24.

For `COc1ccccc1-c1cc(C(F)(F)F)n2ncc(C(=O)O[C@H]3C[C@@H](C)CC[C@@H]3C(C)C)c2n1`, the “% Inhibition” value is -11% and the Z score is listed as 1.58.

For `O=C(c1ccccc1-c1ccccc1)N1CCN(c2ncccn2)CC1`, the “% Inhibition” value is -7% and the Z score is recorded as 0.94.

In the case of `CN(C)CCNC(=O)CCCOCCc1ccccc1`, the “% Inhibition” value is listed as -12% and the Z score worked out at 1.35.

As to `Cc1ccc(NC(=O)Nc2cc(C)ccc2N2CCCN(Cc3ccc(F)c(F)c3)C2=O)cc1`, the “% Inhibition” value was 0% and the Z score worked out at 0.02.

As to `Cc1ccc(S(=O)(=O)Nc2[nH]nnc2C(=O)Nc2ccc(C)cc2C)cc1`, the “% Inhibition” value is reported as 30% and the Z score is on record as -3.37.

Regarding `COC(=O)c1cc(OCC(=O)Nc2ccccc2C)c2cc(Cl)ccc2n1`, the “% Inhibition” value is recorded as -13% and the Z score came to 2.22.

On to `O=C(NC1CCOCC1)N1C2C=CCC1CC2` (stereo unspecified), for which the “% Inhibition” value is on record as -12% and the Z score is given as 1.41.

With `O=C(N[C@@H](CC1CC1)C(=O)O)c1cc(-c2ccccc2)ccc1Cl`, the “% Inhibition” value is recorded as -8% and the Z score worked out at 1.3.

Turning to `Cc1nc2ccc(-n3ncnc3[C@]3(C)CCCO3)cc2s1`, the “% Inhibition” value is -2% and the Z score is listed as 0.3.

With `O=C(NS(=O)(=O)CC1CCCCC1)[C@H]1CC1(F)F`, the “% Inhibition” value is 4% and the Z score is reported as -0.62.

On to `COc1ccc(C(=O)N[C@@H]2CCC[C@@H]2C(=O)N2CCN(c3ccc(Cl)cc3)CC2)cn1`, for which the “% Inhibition” value was -14% and the Z score stood at 1.84.

With `CN(C(=O)[C@H]1CCC(=O)N(C2CCCC2)C1)C(C1CC1)C1CC1`, the “% Inhibition” value was -2% and the Z score came to 0.26.

As for `O=C(Cn1cnc2ccccc21)NCc1cccnc1-c1ccsc1`, the “% Inhibition” value came to 1% and the Z score is listed as -0.16.

For the compound `COc1ccc(OC[C@@H](O)CN2CCC(O)CC2)c(CNCCn2cccn2)c1`, the “% Inhibition” value came to 1% and the Z score is -0.08.

As to `CCN(C[C@H](C)C#N)C(=O)CN(C)C1CCCCC1`, the “% Inhibition” value is listed as -11% and the Z score is 1.22.

In the case of `C[C@@H](CN(C)C(=O)c1ccc(Oc2ccccc2)o1)c1nnn[nH]1`, the “% Inhibition” value came out at 7% and the Z score was -1.

Turning to `O=C(Nc1cccc2c1CCC2)[C@@H]1CN(C(CO)CO)CCO1`, the “% Inhibition” value is recorded as -4% and the Z score was 0.75.

For `CN1CCCC1=NS(=O)(=O)c1cccc(N)c1`, the “% Inhibition” value is -2% and the Z score is listed as 0.23.

Take `CCc1nnc(CN(C)C(=O)NC(C2CC2)C2CC2)o1`: the “% Inhibition” value came out at 10% and the Z score was -1.31.

For `COCCCNC(=O)c1cnn2c(-c3ccc(-c4ccccc4)cc3)ccnc12`, the “% Inhibition” value is given as 0% and the Z score was 0.04.

Regarding `O=C(COc1ccc(-n2cccn2)nn1)Nc1cccnc1`, the “% Inhibition” value is on record as -5% and the Z score came to 0.87.

With `CNc1cc(C)nc(-c2cccc(C(=O)N3CCS(=O)(=O)CC3)c2)n1`, the “% Inhibition” value is 7% and the Z score is reported as -0.96.

On to `CC[C@H]1CN(c2ccc3nnnn3n2)CCO1`, for which the “% Inhibition” value is given as 0% and the Z score was -0.04.

Consider `CC(C)(CN1CCCCCC1)NC(=O)[C@H]1CC[C@@H](O)CC1`, for which the “% Inhibition” value turned out to be 5% and the Z score is -0.94.

`CC(=O)NCc1ccc(-c2noc(-c3cccnc3)n2)s1`: the “% Inhibition” value is 0% and the Z score is on record as 0.01.

Take `COc1cc([C@H](C)NC(=O)c2c[nH]c(C(F)(F)F)c2)ccn1`: the “% Inhibition” value is on record as -6% and the Z score is reported as 0.74.

On to `Cc1cc(N2CCCC2)nc(N2CCN(C(=O)CCC3CCCCC3)CC2)n1`, for which the “% Inhibition” value is -1% and the Z score was 0.26.
